Measured values: PubChem BioAssay AID651820 (National Center for Advancing Translational Sciences (NCATS), 2012)
Hit rate of the full screen: of about 340,000 compounds, about 12,000 (3.5%) were called active. The inconclusive results got no clear call from the source; some entries with a clear call stand among them for comparison. The call rests on the fitted dose curve; in most records, active means well fitted inhibition curve with a large enough effect; inconclusive means small, poorly fitted or top-dose-only effect, or another doubt; inactive means no such curve, though single readings can be large or run the other way. No potency is given beside an inconclusive call; the fits are too rough. More than one record can exist for a structure, and the calls need not agree.
On the % scale 0 is the no-effect control and ±100 the full control effect; potency means the concentration at half of the fitted maximal effect; tags describe the fitted curve by direction and shape.

Assay: qHTS Assay for Inhibitors of Hepatitis C Virus (HCV)
Conditions: Huh7.5.1 HCVcc-Cre (HCVcc is cell-culture hepatitis C virus) infection, luciferase reporter, 44 h; activity change, negative = inhibition: at 41.8 µM (top of the series) unless noted
Procedure, shortened: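 Reporter virus HCVcc-Cre (~0.5 moi) infects cells exposed to compound; seeding density 1,000 cells/well with 4 h settling beforehand. Luminescence, 15 sec read, taken 44 h post-infection following a 15 min RT substrate incubation.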
With `C1CCC(NC2CCCCC2)CC1` the Potency was inconclusive [inhibitor, single point].
With `CCOc1ccc(/C=N/NC(=S)Nc2c(C)cccc2C)cc1` the Potency was inconclusive [inhibitor, single point].
With `Cc1ccc(-n2ncc3c2CC(C)(C)CC3NC(=O)Cc2c(C)noc2C)cc1` (configuration not stated) the Potency was inconclusive [inhibitor, single point].
With `COc1ccc(C(CNC(=O)c2cccc(NS(=O)(=O)c3ccc(C)c(F)c3)c2)N(C)C)cc1` (configuration not stated) the Potency was inconclusive [inhibitor, partial curve].
In the case of `C/C(=N\NC(=S)NCc1ccccc1)C1CCCCC1`, the Potency is reported as inconclusive [inhibitor, single point].
In the case of `Cc1ccc(C(=O)COC(=O)CNC(=O)Cc2ccccc2)cc1`, the Potency is reported as “inactive”.
In the case of `N=c1sc2ccccc2n1-c1ccccc1`, the Potency is reported as inconclusive [inhibitor, full curve].
With `CCOc1cccc(-c2cc(C(=O)Nc3ccon3)c3ccccc3n2)c1` the Potency was inconclusive [inhibitor, single point].
In the case of `CC(=O)C[C@@H](O)CC(=O)[C@@H]1OC(=O)[C@@H](C)CCCCc2ccccc21`, the Potency is reported as “inactive”.
With `COC(=O)c1cc(S(=O)(=O)NCc2ccccc2OC)cn1C` the Potency was inconclusive [inhibitor, single point].
With `c1ccc(C(c2ccccc2)c2ccn[nH]2)cc1` the Potency was inconclusive [inhibitor, single point].
With `Cc1ccc(-c2ccccc2[C@@H]2C[C@H]3CN(C)C(=O)[C@]34CCCN24)o1` the Potency was “inactive”.
In the case of `COC(=O)c1cc(C#N)c(N2CCN(C)CC2)nc1C`, the Potency is reported as “inactive”.
For `COC(=O)C1=C(C)N(C2CCCCC2)C(=O)/C1=C\c1cccs1`, the Potency was inconclusive [inhibitor, partial curve, poor fit].
In the case of `Cc1oc(-c2ccc(Cl)cc2)nc1CN1CCC(C(=O)N2CCN(Cc3ccccc3)CC2)CC1`, the Potency is reported as “inactive”.
For `CCCNc1nc2nc3ccccn3c(=O)c2cc1C(=O)NCCN1CCOCC1`, the Potency was “inactive”.
With `CC(C)(C)NC(=O)C[C@H]1C[C@H](C(=O)N2CCOCC2)[C@@]2(CCC3CCCC3)c3[nH]c4cc(-c5ccco5)ccc4c3CCN2C1=O` the Potency was inconclusive [inhibitor, single point].
In the case of `CC(=NN=C(C)c1ccc(O)cc1)c1ccc(O)cc1`, the Potency is reported as inconclusive [inhibitor, single point].
With `Cc1c(Cl)cnc(NC(=O)COC(=O)c2cc3c(s2)CCC(C)C3)c1Cl` (configuration not stated) the Potency was inconclusive [inhibitor, single point].
For `O=C(CSc1ccccc1)N1CCN(S(=O)(=O)c2cccs2)CC1`, the Potency was “inactive”.
In the case of `CC(C)N1C(=O)NC(=O)C2(Cc3cc([N+](=O)[O-])ccc3N(C)C2c2ccccc2)C1=O` (configuration not stated), the Potency is reported as inconclusive [inhibitor, single point].
For `CCCS(=O)(=O)N1CCC(C(=O)NCCN(C)Cc2ccccc2)CC1`, the Potency was “inactive”.
For `S=C(Nc1ccccc1)N1CCC(Cc2ccccc2)CC1`, the Potency was inconclusive [inhibitor, partial curve].
In the case of `CCN(CC)S(=O)(=O)c1ccc(/C(O)=C(\C#N)c2nc3ccccc3n2C)cc1`, the Potency is reported as inconclusive [inhibitor, single point].
With `Cc1ccc(-n2cc3c(-c4cccc(Br)c4)nnc(C)c3n2)cc1` the Potency was inconclusive [inhibitor, single point].
With `Cc1nn(-c2ccccc2)c2c1C(O)n1c(nc3ccccc31)S2` (configuration not stated) the Potency was active: 11.2 µM.
With `COc1ccc(C(=O)N2CCC3(CC2)NCCc2[nH]cnc23)cc1` the Potency was “inactive”.
In the case of `CN1CCN(C(=O)c2c(NC(=O)c3ccco3)sc3c2CCC(C(C)(C)C)C3)CC1` (configuration not stated), the Potency is reported as “inactive”.
For `COc1cc(NC(=O)c2cccc(Cl)c2)c(OC)cc1NC(=O)CN1CCOCC1`, the Potency was inconclusive [inhibitor, partial curve].
For `Cc1cc2ncc(-c3ccc(Cl)cc3)c(N)n2n1`, the Potency was inconclusive [inhibitor, single point].
For `O=C(CCc1nnc(Cc2ccc(-c3ccccc3)cc2)o1)N1CCCC1`, the Potency was inconclusive [inhibitor, single point].
In the case of `CC(=O)Nc1ccc2c(c1)C(=Nc1ccccc1)c1ccccc1-2`, the Potency is reported as inconclusive [inhibitor, single point].
In the case of `CC(=O)Oc1ccc2ccccc2c1C(NC(=O)C(C)C)c1cccc([N+](=O)[O-])c1` (configuration not stated), the Potency is reported as inconclusive [inhibitor, single point].
For `O=C1C(Cc2ccccc2)Nc2ncnc(N3CCc4ccccc4C3)c2N1Cc1ccccc1` (configuration not stated), the Potency was “inactive”.
For `COc1ccc2cc3cc(C(=O)N4CCCCC4C)oc3nc2c1` (configuration not stated), the Potency was “inactive”.
For `Cc1ccc(N=Nc2c(C)[nH]n(C(N)=S)c2=O)cc1`, the Potency was active: 2.82 µM.
With `COc1ccc(C(C(=O)NC2CCCC2)N(Cc2cccs2)C(=O)c2ccn[nH]2)cc1OC` (configuration not stated) the Potency was inconclusive [inhibitor, single point].
In the case of `CCC(C)OC(=O)C1=C(C)NC2=C(C(=O)C(C(=O)OC)C(C)C2)C1c1ccc(N(C)C)cc1` (configuration not stated), the Potency is reported as inconclusive [inhibitor, single point].
For `CCc1ccc(OCC(=O)N/N=C(\C)c2ccccc2OC(F)F)cc1`, the Potency was inconclusive [inhibitor, single point].
With `CCc1cccc(Nc2cc(C)nc3ncnn23)c1` the activity change, negative = inhibition was inactive: -9.87% [at 8.37 µM].
For `C=C(C)COc1ccc2c(C)c(CCC(=O)NC3CC3)c(=O)oc2c1`, the Potency was inconclusive [inhibitor, single point].
With `O=C(Cc1ccccc1)Nc1ccc(NC(=O)c2cccs2)cc1Cl` the Potency was inconclusive [inhibitor, partial curve].
For `CCOC(=O)N1CCN(CC(=O)Nc2c(C(=O)OC)[nH]c3cc(C)ccc23)CC1`, the Potency was inconclusive [inhibitor, single point].
With `Oc1cc(-c2ccccc2)c2ccccc2c1` the Potency was inconclusive [inhibitor, single point].
For `Cc1cccc(Nc2nc(NCc3ccco3)nc(N3CCOCC3)n2)c1`, the Potency was inconclusive [inhibitor, partial curve].
In the case of `O=C(C(Cc1ccccc1)N1C(=O)c2ccccc2C1=O)N1c2ccccc2CCc2ccccc21` (configuration not stated), the Potency is reported as active: 10 µM.
With `Cc1ccc(-n2c(C)cc(/C=C3/C(=O)NC(=O)N(Cc4ccco4)C3=O)c2C)cc1` the Potency was inconclusive [inhibitor, single point].
In the case of `COc1cccc(NC(=O)CCc2nc(-c3ccccc3F)no2)c1`, the Potency is reported as inconclusive [inhibitor, single point].
For `CN1CCC(N(C)c2nc(-c3ccccc3)nc3ccccc23)CC1`, the Potency was inconclusive [inhibitor, single point].
In the case of `Cc1nc(CCNC(=O)CC2C(=O)NCCN2CC(C)C)nc2c1CCC2` (configuration not stated), the Potency is reported as “inactive”.
In the case of `O=C(Nc1ccc(/C=C/c2nc3ccccc3o2)cc1)c1c(F)cccc1F`, the Potency is reported as active: 5.62 µM.
With `C/C(=N\NC(=O)CNc1cccc2ccccc12)c1ccc(Br)s1` the Potency was inconclusive [inhibitor, partial curve].
In the case of `CCOC(=O)Cc1csc(NC(=O)Nc2ccc(F)cc2)n1`, the Potency is reported as inconclusive [inhibitor, partial curve].
With `CCOc1ccc(OCC)c(NC(=O)CSc2nc3ccccc3c(=O)n2C)c1` the Potency was inconclusive [inhibitor, partial curve].
For `CC[C@@H](O)C[C@H]1CCC[C@@]2(C[C@@H]3OC(=O)/C=C/[C@@](C)(O)[C@@H](O)[C@H](C)[C@@H](O)[C@H](OC4CCC(N(C)C)C(C)O4)[C@@H](O)[C@](C)(O)CCCCC/C=C/[C@@H]4CC(C)(C)O[C@@]4(O)C[C@H](O2)[C@H]3C)O1` (some centres not stated), the Potency was inconclusive [inhibitor, partial curve].
For `COc1ccc(-c2csc(NC(=O)C3CCCCN3S(=O)(=O)c3ccccc3)n2)cc1` (configuration not stated), the Potency was inconclusive [inhibitor, single point].
For `COc1ccc(NC(=S)NC(NC(=O)c2cccc(Cl)c2)C(Cl)(Cl)Cl)c([N+](=O)[O-])c1` (configuration not stated), the Potency was active: 11.2 µM.
With `COC(=O)CC1=C(c2ccc([N+](=O)[O-])cc2)CCC1=O` the Potency was “inactive”.
For `CCOC(=O)N1CCN(S(=O)(=O)c2ccc(C(=O)N(CCCN(C)C)c3nc4ccc(CC)cc4s3)cc2)CC1`, the Potency was inconclusive [inhibitor, single point].
In the case of `CCC(=O)Nc1ccc(-c2nnc(SCC(=O)Nc3nccs3)n2C)cc1`, the Potency is reported as inconclusive [inhibitor, single point].
For `COc1cccc(C(=O)NCC(=O)N2CCN(c3ccc(C(F)(F)F)cn3)CC2)c1`, the Potency was inconclusive [inhibitor, single point].
In the case of `COc1cc(-c2nnc3n2N=C(c2ccccc2)CS3)cc(OC)c1OC`, the Potency is reported as active: 10 µM.
For `OC(COc1ccc(OCc2ccccc2)cc1)CN1CCCCC1` (configuration not stated), the Potency was inconclusive [inhibitor, partial curve].
In the case of `Cc1cccc(C(=O)N2CCN(c3ccc(C(F)(F)F)cn3)CC2)c1C`, the Potency is reported as inconclusive [inhibitor, partial curve].
For `O=C(/C=C/c1ccco1)Nc1ccccc1C(=O)O`, the Potency was “inactive”.
For `C#CCOCCOCCOCCNc1nc(N2CCN(C(=O)Cn3cc(CCCN=C(N)N)nn3)CC2)nc(N2CCN(C(=O)[C@H](C(C)C)n3cc(CCO)nn3)CC2)n1`, the Potency was “inactive”.
For `NC(=O)c1oc2ccccc2c1NC(=O)c1ccc(F)cc1`, the Potency was inconclusive [inhibitor, single point].
